Measurements as given in article PMC4336329 (PLoS ONE, 2015).
The campaign covered roughly 310,000 compounds. About 2,200 (0.71%) showed an effect of 50% or more. The effect is printed as a negative number. The list shows a part of the results.

Biological target: human ether-à-go-go-related gene (hERG) potassium channel (human, UniProt Q12809)
Test: primary screen, population patch clamp on CHO cells stably expressing hERG

Sequence of human ether-à-go-go-related gene (hERG) potassium channel (Q12809 whole entry, looked up): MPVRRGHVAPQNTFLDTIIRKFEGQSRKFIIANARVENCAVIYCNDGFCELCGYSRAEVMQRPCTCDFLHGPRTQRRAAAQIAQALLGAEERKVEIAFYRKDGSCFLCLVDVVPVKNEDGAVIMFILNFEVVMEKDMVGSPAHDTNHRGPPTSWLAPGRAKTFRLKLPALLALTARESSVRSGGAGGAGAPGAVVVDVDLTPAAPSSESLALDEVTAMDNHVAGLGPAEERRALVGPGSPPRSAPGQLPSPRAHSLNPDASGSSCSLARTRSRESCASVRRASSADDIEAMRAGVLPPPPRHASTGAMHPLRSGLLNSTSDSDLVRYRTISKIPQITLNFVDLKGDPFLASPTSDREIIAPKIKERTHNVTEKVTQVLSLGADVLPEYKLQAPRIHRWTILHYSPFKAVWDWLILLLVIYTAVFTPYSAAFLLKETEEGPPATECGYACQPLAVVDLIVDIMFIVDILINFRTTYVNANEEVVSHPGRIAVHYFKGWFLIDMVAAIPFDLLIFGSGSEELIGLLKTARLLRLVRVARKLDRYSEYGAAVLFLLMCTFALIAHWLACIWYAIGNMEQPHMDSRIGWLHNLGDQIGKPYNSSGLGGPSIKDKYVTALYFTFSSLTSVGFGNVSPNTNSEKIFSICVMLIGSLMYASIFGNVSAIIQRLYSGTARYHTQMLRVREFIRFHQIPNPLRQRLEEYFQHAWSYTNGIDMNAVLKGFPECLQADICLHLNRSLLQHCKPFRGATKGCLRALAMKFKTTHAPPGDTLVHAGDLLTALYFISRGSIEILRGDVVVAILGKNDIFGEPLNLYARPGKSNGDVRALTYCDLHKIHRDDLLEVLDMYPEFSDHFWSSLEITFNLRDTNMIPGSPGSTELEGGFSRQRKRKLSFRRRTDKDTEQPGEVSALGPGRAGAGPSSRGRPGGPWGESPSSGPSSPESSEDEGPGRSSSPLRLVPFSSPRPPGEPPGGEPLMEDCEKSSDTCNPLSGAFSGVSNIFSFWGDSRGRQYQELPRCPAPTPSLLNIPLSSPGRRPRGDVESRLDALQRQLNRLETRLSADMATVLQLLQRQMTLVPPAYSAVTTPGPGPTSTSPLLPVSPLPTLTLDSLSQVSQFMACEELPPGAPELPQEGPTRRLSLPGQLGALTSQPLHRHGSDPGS

Row | Structure (SMILES) | hERG current change (%, negative = inhibition) at 1uM [%]
1 | CC1CN(CC(O)COc2ccc(C#N)cc2)CCN1CC(O)COc1ccc(C#N)cc1 (stereo not shown) | -86.2
2 | O=C(Cc1ccccc1)NC1CCN(S(=O)(=O)c2cccc(F)c2)CC1 | 10.5
3 | CC(=O)COc1cc(C)cc2oc(=O)c(C)c(C)c12 | -9.42
4 | CC(=O)c1ccc(NC(=O)c2cc(-c3cccs3)on2)cc1 | 14
5 | CCOC(=O)c1c(NC(N)=O)nc2n1CCC2 | 1.94
6 | Cc1c(NC(=O)/C(C#N)=C/c2ccc(-c3ccc(Cl)cc3)o2)c(=O)n(-c2ccccc2)n1C | 2.8
7 | Cc1ccc(C(=O)COC(=O)COc2ccccc2C)cc1 | 3.93
8 | O=C(O)C1CCCN1S(=O)(=O)c1ccc(Cl)cc1 (stereo not shown) | 6.21
9 | CC(=O)N1CC=CC1(C)C(=O)O (stereo not shown) | 23.3
10 | CNC(=S)NC1CC2CCCC(C1)N2Cc1ccc(C)cc1 (stereo not shown) | -4.5
11 | Cc1cccc(OCC(=O)NC2CCCC2)c1 | 14.5
12 | CC(NC(=O)N1CCOCC1)c1ccccc1 (stereo not shown) | 13.8
13 | Nc1nnc(C(c2ccccc2)c2ccccc2)s1 | 6.58
14 | O=C(Nc1ccc(N2CCCC2)c(S(=O)(=O)Nc2cccc(C(F)(F)F)c2)c1)c1cccs1 | 16.2
15 | O=C(CNc1cccc(Cl)c1)c1ccc(Cl)cc1 | -8.39
16 | N#CC1=C(N)Oc2c(oc(CO)cc2=O)C1c1ccsc1 (stereo not shown) | 14.9
17 | O=C(O)CCCNC(=O)c1ccccn1 | 11.1
18 | CC(Oc1ccccc1)C(=O)Nc1ccc(S(=O)(=O)N2CCOCC2)cc1 (stereo not shown) | 4.11
19 | Cc1cccc(N(C(=O)c2csnn2)C(C(=O)NC(C)(C)C)c2cccs2)c1 (stereo not shown) | 0.549
20 | C=CCOc1ccc(CNc2nccs2)cc1 | 2.92
21 | COc1cccc(NC(=O)COC(=O)C2C3CC4OC(=O)C2C4C3)c1 (stereo not shown) | 10
22 | O=C(C1=C[C@H](c2ccc(C(F)(F)F)cc2)C[C@H](OCc2ccc(CO)cc2)O1)N1CCN(Cc2ccccc2)CC1 | 11.1

Row | Structure (SMILES) | hERG current change (%, negative = inhibition) at 1uM [%]
23 | CN(CC(=O)Nc1ccccc1F)S(=O)(=O)c1ccc2c(c1)n(C)c(=O)c(=O)n2C | 1.5
24 | COc1ccc(N(CC(=O)N2CCN(Cc3ccccc3)CC2)S(C)(=O)=O)cc1OC | 7.08
25 | COc1ccc(CCNC(=O)[C@@H](NC(=O)N2CCn3c2nc2ccccc23)C(C)C)cc1OC | 6.99
26 | CNC(=O)[C@@]1(C)C=C[C@@H](Cc2ccccc2)N1C(=O)OC | 17.3
27 | CCN1CC2(COC(=O)c3ccccc3N)CCC(OC)C34C5CC6C(OC)CC(O)(C5C6OC)C(O)(C(OC)C23)C14 (stereo not shown) | 3.14
28 | CCOC(=O)N1CCC(NCCNC(=O)c2ccccc2)CC1.Cl | 5.68
29 | CCC(C)NCCOCCOc1ccccc1-c1ccccc1.O=C(O)C(=O)O (stereo not shown) | -2.95
30 | Cc1cccc(NC(=O)CSc2nnc(-c3cc(C)n(-c4ccccc4)c3C)o2)c1C | 10.9
31 | CCOC(=O)C(Cc1ccccc1)C(=O)Nc1cccc2ccccc12 (stereo not shown) | 9.89
32 | Cc1cc(C(=O)NCC(=O)Nc2c(C)cccc2C)c(C)o1 | 10.8
33 | COc1ccc(-n2cc(CNCCc3cnc[nH]3)c(-c3cccc(F)c3)n2)cc1 | -5.18
34 | Cn1c(COc2nnc(-c3ccc(Cl)cc3)c3ccccc23)nc2ccccc21 | 13.8
35 | CCC[N+]1(CC#CCC(c2ccccc2)c2ccccc2)CCCCC1.[Br-] | -24.4
36 | O=C(Nc1ccc(S(=O)(=O)Nc2cnc3ccccc3n2)cc1)c1ccc([N+](=O)[O-])cc1Cl | 9.39
37 | COc1ccccc1NC(=O)Oc1cccc(OC(=O)c2ccccc2)c1 | 11.4
38 | CC(C)CCOP(N)(=O)Oc1ccccc1Cl (stereo not shown) | 13.5
39 | COc1ccc(-c2csc3ncn(-c4ccccc4)c(=O)c23)cc1OC | 10.5
40 | O=C(CN1CCOCC1)Nc1cccc(C(=O)Nc2cccc(C(F)(F)F)c2)c1 | -7.81
41 | CCC(c1nnc(SCC(=O)N2CCOCC2)n1C1CCCCC1)N(C)C (stereo not shown) | 3.69
42 | COc1cc(OC)nc(S(C)(=O)=O)n1 | 3.43
43 | C/C=C(/C)C(=O)Nc1cccc(C2=NOC3(C2)C[C@@H](C(N)=O)N(C(=O)c2ccc(OC)cc2)C3)c1 (stereo partly shown) | 13.9
44 | COc1ccc(Nc2ccc([N+](=O)[O-])cn2)cn1 | 13.2

Row | Structure (SMILES) | hERG current change (%, negative = inhibition) at 1uM [%]
45 | O=C(c1ccc(F)cc1F)N1CCN(c2ncccn2)CC1 | 7.76
46 | Cc1nnc(Nc2ccccc2F)s1 | 10
47 | COc1ccccc1C(=O)NC(=O)COC(=O)c1ccc([N+](=O)[O-])cc1Cl | 12
48 | Cc1ccc(C2(CCN)CCOC(C(C)C)C2)cc1 (stereo not shown) | 16.8
49 | O=C(/C=C/c1ccccc1[N+](=O)[O-])N1CCN(C(=O)c2ccco2)CC1 | -9.07
50 | CCOC(=O)c1ccc(NC(=S)N2CCN(CCO)CC2)cc1 | 15.9
51 | COc1ccc(OC)c(S(=O)(=O)N2CCC(C(=O)Nc3ccccc3)CC2)c1 | 7.24
52 | O=C(C1CCC(N2C(=O)C3CC=CCC3C2=O)CC1)N1CCCCC1 (stereo not shown) | 15.7
53 | FC(F)(F)c1cnc(NNC(=S)Nc2cccnc2)c(Cl)c1 | 9.31
54 | O=C(NCCN1CCOCC1)c1ccccc1Cl | 14.1
55 | C=CCc1ccc(OCCOCCOc2cccc3ccc(C)nc23)c(OC)c1.O=C(O)C(=O)O | -12.7
56 | Cc1ccc(S(=O)(=O)N[C@@H](CC(C)C)C(=O)N2CCC(C(=O)N[C@H](C(=O)O)C(C)C)CC2)cc1 | 5.25
57 | COc1cc(NC(=O)C2CC(=O)NC3=C2C(=O)CCC3)cc(OC)c1 (stereo not shown) | 18.6
58 | Cc1cccc(-n2nc3c(c2NC(=O)c2ccc(Br)o2)CSC3)c1C | 1.4
59 | CCN(CC)S(=O)(=O)c1ccc(C(=O)Nc2cc3oc4ccccc4c3cc2OC)cc1 | -2.97
60 | COC(=O)[C@@]1(Cc2ccc(OC)cc2)[C@@H]2C(=CC(=O)[C@H]2CC(=O)C(=O)N2CCCC2)CN1C(=O)c1ccccc1 | 7.72
61 | CCOC(=O)N1CCN(Cc2ccc(F)cc2F)CC1.O=C(O)C(=O)O | 14.9
62 | CCOC(=O)c1sc(NC(=O)CCN2C(=O)c3ccccc3C2=O)c(C(=O)OCC)c1C | 26.1
63 | CC(=O)Nc1cc2cc(NS(=O)(=O)c3ccc(Cl)cc3)ccc2oc1=O | 16.5
64 | O=C(NC1CC1)C1CCCN1C(=O)NC1CCCCC1 (stereo not shown) | 9.27
65 | COc1cccc2sc(N(CCN(C)C)C(=O)/C=C/c3cccs3)nc12.Cl | -8.73
66 | Cc1ccc2nc(C)cc(OCC(=O)O)c2c1.Cl | 25

Row | Structure (SMILES) | hERG current change (%, negative = inhibition) at 1uM [%]
67 | O=C1CCCC(O)=C1C=Nc1cccc(C(F)(F)F)c1 | -1.55
68 | CCCCNS(=O)(=O)c1ccc(NC(=O)c2cccs2)cc1 | 1.84
69 | CCc1nnc(NC(=O)CSc2nnc(-c3ccccc3O)o2)s1 | 14.8
70 | COc1ccc(C(=O)Nc2ncccc2C)cc1S(=O)(=O)N1CCOCC1 | 6.73
71 | N#Cc1ccc(OCCOCCNC2CCCC2)cc1 | 3.88
72 | O=C(CN(C(=O)c1csnn1)c1ccccc1C(F)(F)F)NC1CCCCC1 | 14.5
73 | CCOc1ccc(NC(=O)C2CC(=O)N(c3cc(C)cc(C)c3)C2)cc1 (stereo not shown) | 1.34
74 | COC(=O)C1=C(C)NC(=O)C1(Nc1ccc(Cl)cn1)C(F)(F)F (stereo not shown) | 10.5
75 | COc1ccc(CN(C(=O)CSc2nnc(-c3ccccc3C)o2)c2ccc(F)cc2)cc1 | 8
76 | Cc1ccc(S(=O)(=O)/N=C/c2cc(Br)ccc2O)cc1 | 10.6
77 | Clc1ccc(-c2nnsc2SCc2ccccc2)cc1 | 3.26
78 | Cc1ccc(-c2csc(C3=C(O)CN(NC(=O)c4ccc([N+](=O)[O-])cc4)C3=N)n2)cc1 | 4.51
79 | Fc1ccccc1CCNCc1ccccc1 | 17.8
80 | O=C(CCNS(=O)(=O)c1cccs1)N1CCc2ccccc2C1 | 6.61
81 | Cc1cccc(OCCCC(=O)Nc2ccc(S(=O)(=O)N3CCCC3)cc2)c1 | 6.93
82 | CN(C)c1ccc(NC(=O)CSc2nnc(-c3cccs3)n2Cc2ccco2)cc1 | -6.07
83 | Cc1ccc(N(C(=O)c2csnn2)C(C(=O)NC2CCCC2)c2cccnc2)c(C)c1 (stereo not shown) | 9.95
84 | O=C(CSc1nnc(NC(=O)c2ccc(F)cc2)s1)NCc1ccco1 | 23.6
85 | CS(=O)(=O)N(Cc1ccccc1Cl)c1ccc(C(=O)NCc2ccccn2)cc1 | 5.7
86 | COC(=O)CNC(=O)c1cc(-c2ccncc2)nc2ccccc12 | 14.2
87 | CCC(=O)N1CCc2cc(Br)cc(S(=O)(=O)NCCN3CCCC3)c21 | 7.19
88 | N#Cc1ccccc1OCC(=O)NCc1ccccc1CN1CCCC1 | 0.116
